According to PMC6356061, “Clustering of Tau fibrils impairs the synaptic composition of α3‐Na^+/K^+‐ATPase and AMPA receptors” (The EMBO Journal, 2019):

Key:
[1] = target: T1, AMPA receptor GluA2 subunit (mouse (endogenous in primary cortical …, UniProt P23819)); assay: co-IP; extracts of neurons exposed 10 min to 14.4 nM biotinylated Fib-Tau; immunoprecipitation with anti-α3-NKA, anti-GluA2 or anti-GluN1 and protein G magnetic beads, 4°C; Fib-Tau detected on slot blot with streptavidin-HRP; controls with pre-immune goat or rabbit IgG; conditions: one partner purified
T1 construct: glutamate receptor 2 (AMPA receptor subunit GluA2), mouse, endogenous in cortical neuron cultures; Identified by MS search against SwissProt Rodentia; also called GluA2-AMPA receptor; source: endogenous, mouse primary cortical neurons (exposed live to the fibrils, then lysed)
T1 sequence (P23819 25-883): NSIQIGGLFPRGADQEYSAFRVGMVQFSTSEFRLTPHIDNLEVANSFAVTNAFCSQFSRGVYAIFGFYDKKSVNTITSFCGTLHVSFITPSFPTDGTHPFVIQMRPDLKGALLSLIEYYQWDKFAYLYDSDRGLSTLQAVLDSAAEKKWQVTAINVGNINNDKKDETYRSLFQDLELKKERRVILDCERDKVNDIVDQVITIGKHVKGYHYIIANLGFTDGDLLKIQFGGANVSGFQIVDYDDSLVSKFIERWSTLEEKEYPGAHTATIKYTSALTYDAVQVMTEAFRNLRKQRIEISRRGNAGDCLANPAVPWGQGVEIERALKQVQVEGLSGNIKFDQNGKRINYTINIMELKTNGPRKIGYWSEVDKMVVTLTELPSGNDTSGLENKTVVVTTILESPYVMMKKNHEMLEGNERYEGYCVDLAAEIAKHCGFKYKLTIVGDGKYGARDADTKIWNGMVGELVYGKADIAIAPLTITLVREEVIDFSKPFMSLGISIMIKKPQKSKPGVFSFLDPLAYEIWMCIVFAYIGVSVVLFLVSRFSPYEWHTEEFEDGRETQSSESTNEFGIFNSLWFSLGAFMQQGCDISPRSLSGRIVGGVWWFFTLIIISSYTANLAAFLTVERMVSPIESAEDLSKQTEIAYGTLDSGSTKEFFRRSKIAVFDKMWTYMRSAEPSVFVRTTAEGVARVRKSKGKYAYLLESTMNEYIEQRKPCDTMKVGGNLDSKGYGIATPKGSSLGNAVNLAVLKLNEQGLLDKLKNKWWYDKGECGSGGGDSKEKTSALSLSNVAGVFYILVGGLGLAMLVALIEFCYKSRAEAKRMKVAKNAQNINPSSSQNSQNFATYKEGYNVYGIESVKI

[2] = target: T2, Na+/K+-ATPase (NKA) α3 subunit (mouse (endogenous in primary cortical …, UniProt Q6PIC6)); assay: as above; conditions: one partner purified
T2 construct: sodium/potassium-transporting ATPase subunit alpha-3, mouse, endogenous in cortical neuron cultures; Identified by MS search against SwissProt Rodentia; also called α3-NKA; source: endogenous, mouse primary cortical neurons (exposed live to the fibrils, then lysed)

[3] = target: the molecule itself; assay: AUC; sedimentation velocity of fragmented Fib-Tau, 40 uM equivalent monomeric Tau in PBS, 16,364 x g, 20°C, absorbance at 280 nm, ls-g*(s) in Sedfit; fibrils assembled with heparin; size of the fibril particle
[4] = target: the molecule itself; assay: quantitative transmission electron microscopy; Tau fibrils spun onto carbon-coated grids, negatively stained; length of 838 fibrils and average diameter measured; number of monomers calculated from the fibril volume

Row | Binder | fold enrichment in Tau band intensity over pre-immune IgG control [1] [fold] | fold enrichment in Tau band intensity over pre-immune IgG control [2] [fold] | stoichiometry N [3] [monomers] | stoichiometry N [4] [monomers]
1 | Biotin-labelled fibrillar Tau-1N3R (Fib-Tau-1N3R) (natural protein, biotin (EZ-Link-Sulfo-NHS-S-S-Biotin, 10 molar equivalents), 3 to 4 biotin molecules on average, microtubule-associated protein Tau, human, wild-type, isoform 1N3R, 381 amino acid residues; Fibrillar assembly; In the imaging experiments (functional rows) the fibrils carried ATTO dyes or no label instead of biotin; also called biotin-Fib-Tau; Tau-1N3R fibrils; source: recombinant, expressed and purified as described previously (Tardivel et al, 2016); fibrillated at 40 uM with 10 uM heparin, …) not shown | 2.3 | 2.4 |  | 
2 | Fragmented fibrillar Tau-1N3R (Fib-Tau 1N3R) as used to determine the particle concentration (natural protein, microtubule-associated protein Tau, human, wild-type, isoform 1N3R, 381 amino acid residues; also called Tau fibrils; source: recombinant, expressed and purified as described previously (Tardivel et al, 2016); fibrillated at 40 uM with 10 uM heparin, fragmented by sonication) not shown |  |  | ~137 | 136
